# Laboratory results as given in the RNAGym collection of RNA variant scans (doi:10.1073/pnas.2313332121).
# Variants at the floor of the assay are shown more often than the library holds them.
# B1: TPR 5TU (parent)
# chain: GGAUCUUCUCGAUCUAACAAAAAAGACAAAUCUGCCACAAAGCUUGAGAGCAUCUUCGGAUGCAGAGGCGGCAGCCUUCGGUGGCGCGAUAGCGCCAACGUUCUCAACUAUGACACGCAAAACGCGUGCUCCGUUGAAUGGAGUUUAUCAUG
# Variants of: B1
# Assay: polymerase ribozyme fitness, log enrichment relative to wild type (log ratio); higher = more active; in vitro selection for triplet polymerase activity
# Outline: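 A heterodimeric triplet polymerase ribozyme had each of its subunits mutagenized by PCR into a library, which was transcribed. One round of in vitro selection, done in triplicate, annealed each library with a biotinylated primer, its partner subunit and triplets, then incubated it frozen at −7 °C before gel excision of extended constructs, streptavidin-bead capture and RT-PCR. Fitness is the logarithm of genotype enrichment relative to wild-type enrichment, based on Illumina sequencing of inputs and outputs and inverse-variance-weighted replicate averages. A base-2 logarithm is used, and genotypes were kept only with ≥10 input reads and ≥1 read per output.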
row,Variant,polymerase ribozyme fitness (log ratio)
1,A49C G50A C51G G59C G65A U109A G117A,≤ -4.2
2,A49C G50C,≤ -4.2
3,A49C G50C A91U C96G,≤ -4.2
4,A49C G50C G81C A110U,≤ -4.2
5,A49C G50U G84A,≤ -4.2
6,A49C G50U G94U C96U C116A,≤ -4.2
7,A49C G58A C69A U78G,≤ -4.2
8,A49C G58A G65A U139A,≤ -4.2
9,A49C G58C C93A A122G,≤ -4.2
10,A49C G59A C69G C75A C87A A107U C131G,≤ -4.2
11,A49C G59A C76A A98G,≤ -4.2
12,A49C G59C A91U,≤ -4.2
13,A49C G59U A73G C96U U104G U135A,≤ -4.2
14,A49C G62A G65U,≤ -4.2
15,A49C G62U A107U G152A,≤ -4.2
16,A49C G65A A73U U102C G140A A150C,≤ -4.2
17,A49C G67A G92U A138C,≤ -4.2
18,A49C G68A,≤ -4.2
19,A49C G68A C96G,≤ -4.2
20,A49C G68A C96U A98C C108G,≤ -4.2
21,A49C G68A C105U A120U,≤ -4.2

row,Variant,polymerase ribozyme fitness (log ratio)
1,A49C G68A G84A C125U U127A G128U,≤ -4.2
2,A49C G68C A91C G92A C99G,≤ -4.2
3,A49C G68C G94U A97U C114G G126A U127G,≤ -4.2
4,A49C G68U C85U G100U C125U,≤ -4.2
5,A49C G74C,≤ -4.2
6,A49C G74U U77G,≤ -4.2
7,A49C G80A A89U C93A G94U,≤ -4.2
8,A49C G80A G86U U102A A115U,≤ -4.2
9,A49C G81A A91C A97U A107U G133U,≤ -4.2
10,A49C G81A G92U C93U G140U G152C,≤ -4.2
11,A49C G81C C85U A98U U104C,≤ -4.2
12,A49C G81C C93A A107C C118U,≤ -4.2
13,A49C G83C A91G C131U G141C,≤ -4.2
14,A49C G83C C105A C132A,≤ -4.2
15,A49C G84A C93G,≤ -4.2
16,A49C G84U A142G,≤ -4.2
17,A49C G86A C129A C132U U148A G152U,≤ -4.2
18,A49C G86U U111G U139A U144G,≤ -4.2
19,A49C G88A,≤ -4.2
20,A49C G88A A89G A119U U127A,≤ -4.2
21,A49C G88C G141C,≤ -4.2

row,Variant,polymerase ribozyme fitness (log ratio)
1,A49C G94C U104G,≤ -4.2
2,A49C G124U,≤ -4.2
3,A49C G140C,≤ -4.2
4,A49C U53A A106G,≤ -4.2
5,A49C U53A C75G A89U C93G G128C,≤ -4.2
6,A49C U53A C96A G112A C118A G143C U144A,≤ -4.2
7,A49C U53A G88C G141C,≤ -4.2
8,A49C U55A A66U C72A C85U,≤ -4.2
9,A49C U55A U101A C103U,≤ -4.2
10,A49C U55G C76U C87A C99U C105U A120U,≤ -4.2
11,A49C U55G G80A G84U U101C,≤ -4.2
12,A49C U56A A64G C87U,≤ -4.2
13,A49C U56A A66C G84U U111G,≤ -4.2
14,A49C U56A A91U C93A C116U A121G C129U G133A,≤ -4.2
15,A49C U56A A113U G152U,-3.93
16,A49C U56A C76A C87G G88C,≤ -4.2
17,A49C U56C,≤ -4.2
18,A49C U56G U61A A64U C93A A113C G117C U144C,≤ -4.2
19,A49C U61A A97G U148G,≤ -4.2
20,A49C U61G G62A G81C,-4.13
21,A49C U90G,≤ -4.2

row,Variant,polymerase ribozyme fitness (log ratio)
1,A49C U101C C123A C129A,≤ -4.2
2,A49C U145G,≤ -4.2
3,A49C U146A,-3.98
4,A49C U146C,≤ -4.2
5,A49G A52C,-1.27
6,A49G A52C A66U,≤ -4.2
7,A49G A52C G86C,-3.61
8,A49G A52C U53A U55A C69A,≤ -4.2
9,A49G A52G U55C G84A A91C C99G U101G G141U,≤ -4.2
10,A49G A52G U78G G80A C108G U127G,≤ -4.2
11,A49G A60G C85U,-0.602
12,A49G A66C A91C G100C,≤ -4.2
13,A49G A66G G71C C87G C95G A120G G124C A142U,≤ -4.2
14,A49G A73G,-0.67
15,A49G A73U G83U U90G C95U C96A G136A,≤ -4.2
16,A49G A91G A142C,-3.71
17,A49G A91U C93U U101C,≤ -4.2
18,A49G C51G U78C C96G,-4.14
19,A49G C51U C75U C93A,≤ -4.2
20,A49G C51U C95U G100C A107U C123G G136U A147G,≤ -4.2
21,A49G C54A G65C C93G C108A,≤ -4.2
